Whole data set: some 33,000 sequences, median “E-score (-0.5 to 0.5)” near -0.017, cut for the highest 2% near 0.3. The list shows a part of the results.
These sequences were tested against T1, Sut1 (UniProt P53032) (assay: PBM E-score (8-mer binding enrichment) (E-score (-0.5 to 0.5)); higher = stronger / more preferred TF binding; most listed sequences are background and not binding sites). Conditions: protein concentration: 200 nM; construct: GST-full length.
T1 sequence: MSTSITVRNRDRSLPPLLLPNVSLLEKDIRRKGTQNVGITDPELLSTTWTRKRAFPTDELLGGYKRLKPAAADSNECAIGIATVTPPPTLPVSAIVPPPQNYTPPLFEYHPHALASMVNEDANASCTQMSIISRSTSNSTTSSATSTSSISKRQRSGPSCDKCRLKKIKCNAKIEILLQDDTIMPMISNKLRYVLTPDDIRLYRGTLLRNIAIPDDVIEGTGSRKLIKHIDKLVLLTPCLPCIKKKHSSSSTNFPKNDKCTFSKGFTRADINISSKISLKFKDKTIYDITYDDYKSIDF
Procedure, shortened: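 For each ungapped eight-base word taken together with its reverse complement, the Universal PBM Analysis Suite assigned an E-score. Binding data came from GST-tagged yeast transcription factors, applied at about 100-200 nM, on universal all-10-mer Agilent arrays made double-stranded by primer extension. Fluorescent anti-GST marked bound protein, and scans were normalised with masliner.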

| Sequence | PBM E-score |
| --- | --- |
| TGGTCACA | 0.0302 |
| GGGGAACC | -0.169 |
| TCGCAACA | -0.128 |
| ATTGACCA | -0.004 |
| GATTAGCA | 0.00891 |
| CTGCCTCA | -0.242 |
| GTTAAACA | 0.282 |
| CGCTAATA | 0.0649 |
| AGCCCCGC | -0.145 |
| GATGCCCC | -0.308 |
| AAGTGGCA | -0.166 |
| AAACAAGT | 0.0919 |
| CTGGGGCC | -0.323 |
| ACTACCGG | 0.0751 |
| GCAATGGA | -0.0742 |
| GCAAGAAC | 0.0471 |
| CCAGCGCG | -0.174 |
| CATCGGTC | -0.106 |
| TCAATTGA | 0.214 |
| GCGCCCGC | -0.405 |
| GCGATCCC | -0.182 |
| AACTGAAA | 0.221 |
| CTCTCGCA | -0.173 |
| CCCAAGAC | -0.125 |
| CCTGACTC | -0.13 |

| Sequence | PBM E-score |
| --- | --- |
| CATCTTCA | -0.18 |
| CAGAGATG | -0.149 |
| AGACCTTC | -0.153 |
| GCCCATCA | -0.314 |
| GTATCAAC | 0.0399 |
| CAGGATTA | -0.172 |
| ACGACGAT | 0.189 |
| CGAGCACC | -0.161 |
| CTTGGGCC | -0.23 |
| AAATATGG | -0.0603 |
| ATCAAGGG | -0.102 |
| ACTGAGAT | -0.0119 |
| AGGGAACA | -0.222 |
| AACTAAAG | 0.195 |
| TACGCATA | 0.129 |
| TATCGAAA | 0.0439 |
| CTTGTCGC | -0.139 |
| AAACATTA | 0.24 |
| CCCACAGG | -0.249 |
| CCGCTTAG | -0.039 |
| TCTAACCA | 0.0509 |
| CGGCCGGA | 0.275 |
| CCTACAGC | -0.00274 |
| GCTCGCAC | 0.0343 |
| AAGCACGG | -0.00889 |

| Sequence | PBM E-score |
| --- | --- |
| TGAGGACA | -0.154 |
| AAGTCAAA | 0.128 |
| CCCTCACG | -0.339 |
| AATCGTGG | -0.0317 |
| AATTTTTG | 0.262 |
| ATCCAGTA | 0.00221 |
| AGACGACG | -0.206 |
| GGGTTGAC | -0.147 |
| AAAAGGAG | 0.0944 |
| GCATGCCC | -0.048 |
| CCCTTGTA | -0.119 |
| CAGAGATC | -0.0765 |
| TCCGGGAA | 0.356 |
| GTGATTTA | 0.101 |
| TAGGCACA | -0.231 |
| ATGCCCTC | -0.108 |
| GAGCTCGA | 0.0102 |
| CCTTTGTC | -0.0868 |
| ATCATCGC | 0.0155 |
| CTACAGAA | 0.0324 |
| CAGAAATA | 0.161 |
| CTCCGAAG | 0.457 |
| AACGGCAC | -0.0982 |
| TATATGAA | 0.162 |
| GAGGTATA | 0.196 |

| Sequence | PBM E-score |
| --- | --- |
| ATAGTAGA | 0.177 |
| ACGATGCA | 0.0229 |
| AGTATCTG | -0.0411 |
| ACTGTTGA | -0.0111 |
| AGTCCGTC | 0.424 |
| AAGACACG | 0.103 |
| AGTACTAA | 0.119 |
| AAGTTCCT | -0.0213 |
| AGATTCCA | 0.145 |
| ATGTTCAA | 0.0198 |
| CGAAAGCC | 0.104 |
| CAGGTTGG | -0.195 |
| ACAATGCA | 0.0426 |
| CCGCACGG | -0.0701 |
| CCGCCTTA | -0.26 |
| CGTGGTTA | -0.154 |
| TGAACAAA | 0.183 |
| ATACCGAA | 0.173 |
| ATTCTATG | 0.129 |
| AGGATATG | 0.0511 |
| CAGTCTGG | -0.273 |
| ATACGGGC | -0.126 |
| CAACTCAC | 0.0385 |
| GCAGAATA | -0.0687 |
| ACGAGCCC | -0.213 |

| Sequence | PBM E-score |
| --- | --- |
| CATCCAAG | -0.1 |
| AAGGGTAG | -0.257 |
| CCTTCAAG | -0.125 |
| AGCACGAT | -0.0209 |
| GCTAGTTA | -0.0157 |
| ACGCACTA | -0.0472 |
| CTTTGCCC | -0.134 |
| AGCGCGGA | 0.198 |
| ATCTATTA | 0.26 |
| AGACCCCC | -0.277 |
| ATGTATGG | -0.0921 |
| CCCCTGAA | -0.317 |
| AGACCACC | -0.0644 |
| ACTTGCAC | -0.0271 |
| AGGTCGAC | -0.0737 |
| AGGCGGCC | -0.275 |
| AGGGAGTA | -0.181 |
| CACGTTGC | -0.187 |
| AAGTTCAT | 0.145 |
| GAGCGCGC | -0.0158 |
| GGACCCCC | -0.211 |
| AAACGTAT | 0.173 |
| GCGCAAAA | 0.0966 |
| AAATGTGG | 0.168 |
| ACCGTAAA | 0.155 |

| Sequence | PBM E-score |
| --- | --- |
| ACTGGCAA | -0.00447 |
| GGCCAGAC | -0.0757 |
| ATTTAGTA | 0.261 |
| GCGGTTGA | 0.0176 |
| GGATTAAA | 0.0968 |
| ATGGGGCG | -0.22 |
| TCTGGCCA | -0.195 |
| GCGATACC | -0.179 |
| AGAACTGA | -0.0095 |
| CCTTAGCA | -0.096 |
| ATCGACGC | -0.172 |
| AATGATAA | 0.299 |
| ACACTCCT | -0.0674 |
| AATTCCAC | 0.115 |
| GGCCAACC | -0.186 |
| TATACGAA | 0.194 |
| AACCTCGA | -0.0432 |
| CTAAGAGC | -0.0595 |
| AAAAGTAT | 0.129 |
| AAGGAACC | 0.0363 |
| ATTTGAGA | 0.0267 |
| ACGGCGTA | -0.0916 |
| GTGTTCTA | 0.0717 |
| AGCAAGCT | -0.186 |
| AGAAGTGC | -0.186 |

| Sequence | PBM E-score |
| --- | --- |
| AATCAACC | 0.0271 |
| AAGACCCC | -0.028 |
| AAAATACC | 0.235 |
| CGAATCAC | 0.0698 |
| TAATGGAA | 0.069 |
| ACTCACCA | 0.0183 |
| ACGCTGAG | -0.16 |
| TAGACTGA | 0.0479 |
| CTTCTAAA | 0.221 |
| GTTCGGCA | -0.0011 |
| CGATCCAG | -0.216 |
| CTTTTCTA | 0.081 |
| ACGATGAT | -0.0549 |
| AGGTGGAT | -0.0899 |
| ATCAGTTA | 0.204 |
| AAGCGGAT | 0.187 |
| AAGACGTA | -0.0734 |
| GACTAAGA | 0.129 |
| ATGAGGTA | 0.0682 |
| CACTCCTA | -0.0496 |
| GGGTACTA | 0.00932 |
| AACGTTAG | -0.0105 |
| ATAAAAAA | 0.265 |
| CGTGGCGA | -0.18 |
| TCCGCACA | 0.124 |

| Sequence | PBM E-score |
| --- | --- |
| CGGTTCAC | -0.196 |
| CTAAATTC | 0.187 |
| ATTCCACG | -0.126 |
| TGACACCA | -0.125 |
| GTGTCTGA | -0.0232 |
| GCAACATA | -0.0182 |
| AGTGGCGA | 0.0883 |
| CGGAAGCC | 0.112 |
| GTGTCCTA | -0.0384 |
| GCGAAGAA | 0.0776 |
| AGTAGTGC | -0.185 |
| CGGCCTGC | -0.186 |
| TCGGGTAA | 0.109 |
| GGCGGCAA | -0.112 |
| ATGGCCGA | -0.0627 |
| GCCTAAAC | -0.106 |
| GCGGAGAC | 0.183 |
| AGCGCGTG | -0.108 |
| GGGATGAC | -0.134 |
| CCAGCTGG | -0.188 |
| TCACCGCA | -0.0955 |
| GAACATAA | 0.166 |
| CGTCATAG | -0.0945 |
| AACCGCGA | 0.176 |
| AGGGCGAC | -0.145 |

| Sequence | PBM E-score |
| --- | --- |
| ACTTCCGA | 0.245 |
| CCACCTCC | -0.127 |
| ACCGTCAA | 0.0585 |
| GAATACGC | 0.0146 |
| CGTTCAGC | -0.0909 |
| AGGCCCAC | -0.387 |
| AAGCCGAC | -0.0298 |
| AACTTGGA | -0.0712 |
| CGGCTGTA | -0.119 |
| AAGATACC | 0.142 |
| AACCGAAG | 0.139 |
| AGACGTAA | -0.134 |
| CTCCTGAA | -0.0399 |
| GCCCTGCA | -0.197 |
| CCTGCGAG | -0.16 |
| GCTAGACA | -0.0247 |
| GGATAGAA | 0.0802 |
| CATTTTCG | 0.141 |
| AGGTAACG | -0.0455 |
